Laboratory results: PubChem BioAssay AID1347073 (National Center for Advancing Translational Sciences (NCATS), 2019)
The whole screen tested about 45,000 compounds, of which about 200 (0.44%) were called active. About 7% were inconclusive and are not listed. Calls follow the shape of the dose curve; as a rule, active = well fitted activation curve with a large enough effect; inconclusive = small, poorly fitted or top-dose-only effect; inactive = no such curve, though single readings can be large or run the other way. The list shows a part of the results.

assay: qHTS of TDP-43 Inhibitors: NCGC Sytravon Library Screen; conditions: yeast TDP-43 toxicity rescue, BacTiter-Glo growth, 24 h; series mostly up to 46.1 µM; growth rescue (activation): at the top concentration; also: 0% is about no effect; nearly all actives have a fitted effect of over 55% in size
In short: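 TDP-43-expressing yeast, pregrown in raffinose, seeded at OD600 0.02 in galactose medium with compound for 24 hr at 30 deg C. Growth read by BacTiter-Glo luminescence, so rescue of toxicity appears as activation.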

SMILES | growth rescue (activation)
Cc1cc(C)cc(Cn2c3ccc(NC(=S)NC4CCCCC4)cc3c(=O)n2C)c1 | inactive: -3.71%
O=C(Cn1ccc2ccccc21)Nc1ccc2c(c1)OCO2 | inactive: 7.8%
CC(C)CC(=O)Nc1ncc([N+](=O)[O-])s1 | inactive: 12.3%
CC(NC(=O)C1CCN(S(=O)(=O)c2ccc(Br)s2)CC1)c1ccccc1 (stereo not given) | inactive: 20%
CC(/C=C/c1ccc(OCc2ccccc2)cc1)=N\O | inactive: 0.252%
COc1cccc2c1O/C(=N\O)C(C(=O)Nc1cccc(Br)c1)C2 (stereo not given) | inactive: 8.31%
O=C(c1ccccc1F)N1CCN(c2ccc([N+](=O)[O-])c(N3CCOCC3)c2)CC1 | inactive: 15.3%
CCCCCCCOC(=O)C[N+](C)(C)CCOC1CC2CCC1(C)C2(C)C (stereo not given) | inactive: -69.9%
CCC(C(=O)OCC(=O)Nc1cc(OC)ccc1OC)c1ccccc1 (stereo not given) | inactive: 5.02%
CCc1nnc(NC(=O)c2nc(S(=O)(=O)Cc3ccccc3)ncc2Cl)s1 | inactive: 18.6%
O=C(N/N=C/c1cc2c(cc1Cl)OCO2)c1ccc2c(c1)OCCO2 | inactive: 6.34%
COc1cc(OC)cc(-c2noc(-c3csc([C@@H]4O[C@H](CO)[C@H](O)[C@H](O)[C@H]4O)n3)n2)c1 | inactive: -11%
COc1ccc(NC(=O)c2ccccc2NS(=O)(=O)c2ccc(CNC(C)=O)cc2)c(OC)c1 | inactive: -3.09%
COC(=O)c1cc(CNC(=O)c2ccc(O)c(Cl)c2)ccc1OC | inactive: -9.91%
CC(C)c1ccc(C(=O)OC2CCOC2=O)cc1 (stereo not given) | inactive: 15.8%
COc1ccc(NC(=O)COC(=O)C2CC3C=CC2C3)cc1 (stereo not given) | inactive: 18.8%
CC1CC(C)CN(S(=O)(=O)c2ccc(NC(=O)CN3CCCCCC3)cc2)C1 (stereo not given) | inactive: 19.4%
COCCNC(=O)CCc1c(C)nc2nc(-c3cc(OC)cc(OC)c3)nn2c1C | inactive: 15.4%
Cn1nnc(NC(=S)NC(=O)c2cccs2)n1 | inactive: 3.41%
COc1ccc(CNC(=O)C/C(C)=N/NC(=O)COc2ccc(Br)cc2)cc1 | inactive: 12.7%
COc1ccc(S(=O)(=O)N(C)C)cc1NC(=O)CN1C(=O)NC2(CCCC2)C1=O | inactive: -12.9%
Cc1ccc(-n2c(=O)c3sccc3n(Cc3cc(=O)n4ccccc4n3)c2=O)cc1 | inactive: 7.43%

SMILES | growth rescue (activation)
O=C(Nc1ccc(Cl)cn1)c1ccc(Oc2ccccc2)cc1 | inactive: -0.23%
CNC(=O)N(O)C1N(/N=C/c2cccnc2)C(=S)SC1(C)C (stereo not given) | inactive: 3.07%
COc1ccc(-c2csc3nc(-c4cccnc4)nc(Cl)c23)cc1OC | inactive: 20.5%
CCOC(=O)CN(C)C(=O)CCc1nnc(-c2ccsc2)o1 | inactive: 7.98%
COCCNc1nc2sc3c(c2c(=O)n1Cc1ccco1)CCCCC3 | inactive: 14%
Nc1c2c3c(sc2nc(=O)n1N)CCCC3 | inactive: 7.48%
COc1ccccc1OC(C)C(=O)Nc1ccc2c(c1)OCCO2 (stereo not given) | inactive: 30.8%
COc1cccc(NC(=S)NCc2ccncc2)c1 | inactive: -22.2%
CC(C)(C)c1cc(NCCCn2ccnc2)n2ncc(-c3ccccc3)c2n1 | inactive: 22.3%
CCCCCN(C(=O)CCCSc1nncs1)c1c(N)n(CCCC)c(=O)[nH]c1=O | inactive: 4.69%
CC(C)N1CCC(C)(C(=O)Nc2cccc(Oc3ccccc3)c2)C1 (stereo not given) | inactive: 9.6%
N#CC(c1ccccc1)c1cccc(Cl)n1 (stereo not given) | inactive: -1.05%
COc1ccc(C(=O)NC2CC2)cc1OC1CCN(Cc2cnn(C)c2C)CC1 | inactive: 13.6%
Clc1cccc(Cl)c1CSc1nnc([C@@H]2CCCN2)o1 | inactive: 9.95%
COCCn1c(=O)c2ccccc2c2ccccc2c1=O | inactive: 18.4%
NC(=O)Cc1nc(-c2ccc([N+](=O)[O-])cc2)cs1 | inactive: 9.61%
CCOC(=O)c1cc(-c2ccc3c(c2)OCCO3)nc2c1c(C)nn2CCC#N | inactive: -1.39%
COC(=O)c1cc(-c2cccc([N+](=O)[O-])c2)c2c(=O)[nH]c(=O)n(C)c2n1 | inactive: -14.6%
CN(C)S(=O)(=O)c1ccc(C(=O)NCc2ccco2)cc1 | inactive: -3.51%
CCOc1cc(NC(=S)NCCCN2CCOCC2)c(OCC)cc1NC(=O)c1ccc(C)cc1 | inactive: 7.44%
CC1=CN2C(=N)/C(=C/c3ccco3)C(=O)N=C2S1 | inactive: -11.8%
CCOC(=O)C1=C(c2ccc(OC)cc2)C(=O)c2ccccc2C1=O | inactive: 0.678%

SMILES | growth rescue (activation)
COc1ccc(CCNc2ccc(N3C(=O)CC(C)C3=O)cc2[N+](=O)[O-])cc1 (stereo not given) | inactive: 11.8%
CCN(CC)S(=O)(=O)c1ccc2c(c1)N(CC(=O)N1CCCC1)C(=O)CO2 | inactive: -13.2%
Cc1ccc(Nc2nnc(SCC(=O)Nc3cccc(S(=O)(=O)N4CCCCC4)c3)s2)cc1 | inactive: -5.27%
COc1ccc(CNC(=O)CN(C(=O)CCC(=O)Nc2nccs2)c2cccc(C)c2)cc1 | inactive: 4.13%
O=C(CSc1ccc(Cl)cc1)OCC(=O)N1CCN(c2ccccc2)CC1 | inactive: -3.73%
Cc1ccc(S(=O)(=O)CCC(=O)OCc2ccc(S(=O)(=O)C(C)C)cc2)cc1 | inactive: 1.99%
CCOC(=O)c1ccc(NC(=O)N2CCN(Cc3ccccc3)CC2)cc1 | inactive: -3.08%
Fc1ccc(OCc2nnc(-c3ccccc3Br)o2)c(Cl)c1 | inactive: 9.62%
CC(C)Oc1cccc(C(=O)C2CCCN(Cc3cnc(N4CCOCC4)s3)C2)c1 (stereo not given) | inactive: 6.4%
Cc1ccc(C)c(N2CCN(C(=O)c3cc(S(=O)(=O)N4CCOCC4)ccc3F)CC2)c1 | inactive: 9.56%
Cc1c(C(=O)OCC(=O)NCC2CCCO2)cccc1[N+](=O)[O-] (stereo not given) | inactive: 5.33%
c1cc(-c2cc3nc(NCC4CC4)ccn3n2)ccc1OCCN1CCOCC1 | inactive: 2.91%
Cc1ccc(CNC(=O)CSc2ncn[nH]2)cc1 | inactive: 9.48%
COc1ccc(C(C(=O)NC2CCCC2)N(Cc2cccnc2)C(=O)Cc2cccs2)cc1OC (stereo not given) | inactive: -9.1%
NC(=O)C1CCN(S(=O)(=O)c2ccc3c(c2)OCCO3)CC1 | inactive: -16.8%
CC(NC(=O)C(C)N1CCN(Cc2ccccc2)CC1)c1ccccc1 (stereo not given) | inactive: 0.531%
CNc1cnc(-c2ccccc2OC)cn1 | inactive: 5.7%
Cc1ccc(-n2c(SCC(=O)N3c4ccccc4Sc4ccccc43)nnc2-c2ccncc2)cc1 | inactive: 26.7%
CCCNC(=O)C1(C)CCN(Cc2cc(C(F)(F)F)ccc2Cl)C1 (stereo not given) | inactive: 5.81%
O=C(COc1ccc(Br)cc1)Nc1ccncc1 | inactive: -18.6%
CCN(CC(=O)NCc1ccc(Cl)cc1)C(=O)c1cnc(Cl)c(Cl)c1 | inactive: 2.96%
CCC(CC)N=C1NS(=O)(=O)c2cc([N+](=O)[O-])ccc21 | inactive: 19.6%

SMILES | growth rescue (activation)
CC(C)(C)Nc1scc(-c2ccccc2)[n+]1-c1ccccc1 | inactive: 4.56%
COCCNC(=O)Cn1cc(S(=O)(=O)N2CCN(c3ccccc3F)CC2)c2ccccc2c1=O | inactive: -1.65%
CCn1cc(C(=O)OCC(=O)Nc2ccc(C(C)C)cc2)c(=O)c2ccc(C)nc21 | inactive: 19.1%
O=C(c1ccccc1O)N1CCOCC1 | inactive: 0.381%
CC1(c2cccc(Br)c2)NC(=O)N(CC(=O)Nc2ccc(F)cc2)C1=O (stereo not given) | inactive: 0.321%
CCCOc1ccc(C2NC(=S)NC(c3ccccc3)=C2C(=O)Nc2ccc(C)cc2)cc1OC (stereo not given) | inactive: 23.5%
COc1cc(/C=N/Nc2nc(C)cc(=O)[nH]2)ccc1OC(=O)c1cccnc1 | inactive: -10.2%
O=C1CSC(=Nc2ccccc2[N+](=O)[O-])N1 | inactive: 14.2%
N/C(Cc1ccc(Cl)cc1Cl)=N\OC(=O)c1ccccc1F | inactive: -93.3%
CS(=O)(=O)N1CCN(C(=O)Cc2ccccc2Cl)CC1 | inactive: -2.06%
O=C(CS(=O)(=O)c1ccc(Cl)cc1)NCCS(=O)(=O)c1ccc(Cl)cc1 | inactive: -2.27%
Cc1ccc2c(c1)N(CC(=O)N1CCOCC1)C(=O)C(C)O2 (stereo not given) | inactive: -3.55%
O=CN(CCN(C=O)CN1CCCCC1)CN1CCCCC1 | inactive: -7.45%
CCN1CN(Cc2ccccc2)CNC1=S | inactive: 13.3%
C=C(C)Cn1c(C)cc(C)c(S(=O)(=O)c2ccc(C)cc2)c1=O | inactive: 6.68%
O=C(NNC(=O)c1ccccc1Br)c1cccs1 | inactive: 4.72%
Clc1ccc(/C=N/N2CCN(Cc3ccccc3Cl)CC2)cc1 | inactive: 13.8%
COC(=O)c1cc(Nc2cc(C)c3ccc(O)cc3n2)cc(C(=O)OC)c1 | inactive: 6.76%
O=c1ccnc(Nc2ccc3c(c2)OCCO3)[nH]1 | inactive: -11.4%
O=C(NCC1CCCO1)c1cc(-c2ccccc2)nc2ccccc12 (stereo not given) | inactive: -5.45%
Cn1c(=O)c2c(nc(CO)n2C)n(C)c1=O | inactive: -35.8%
COc1ccccc1NC(=S)N1CCCC1 | inactive: -17.6%

SMILES | growth rescue (activation)
CC(=O)c1ccccc1C(=O)N1CCC(n2nccc2NC(=O)C2CC2)CC1 | inactive: 14.7%
Cc1cc(C)n(-c2ccc([N+](=O)[O-])cc2-c2nn[nH]n2)n1 | inactive: 3.17%
O=C(NCCN1CCOCC1)c1cccnc1SCc1ccccc1Cl | inactive: 7.99%
COCCNc1nc(NCC2CCCCC2)c2sc(-c3ccccc3)cc2n1 | inactive: -1.69%
O=C(NC(=S)NCc1ccccc1)c1ccccc1[N+](=O)[O-] | inactive: 17.3%
Cc1ccc(/C=C2/SC(=O)NC2=S)o1 | inactive: -26.9%
COc1cc(C(=O)N2CCCCC2c2cc(C(=O)N3CCOCC3)no2)cc(OC)c1C (stereo not given) | inactive: 1.26%
CCOC(=O)c1ccc(N2CCN(c3cc(C)ccc3C)CC2)c(N)c1 | inactive: 15.1%
O=C(O)c1nn2cc(CCO)cnc2c1Cl | inactive: 3.55%
CS(=O)(=O)N1CCN(C(=S)NCc2ccc(F)cc2)CC1 | inactive: -4.15%
Cn1cc(C=C2C(=O)CC(C)(C)CC2=O)c2ccccc21 | inactive: 4.42%
CCOC(=O)CC(NC(=O)c1cccc2c1C(=O)N(Cc1cccnc1)C2)c1ccc(OCC)c(OC)c1 (stereo not given) | inactive: -5.46%
COc1ccccc1CNCC(=O)Nc1ccc(C#N)cc1 | inactive: 1.84%
Nc1cc(=O)[nH]c(SCCSc2ccc(F)cc2)n1 | inactive: -0.177%
COc1ccc(-c2cc3nc(NCc4ccc(N(C)C)cc4)n(C)c(=O)c3s2)cc1OC | inactive: 18.7%
CCC(NC(=O)Nc1nccs1)(C(F)(F)F)C(F)(F)F | inactive: 18.1%
O=C(Cc1ccccc1)NCC(=O)Nc1ccc(OC(F)(F)F)cc1 | inactive: 6.62%
COc1cc(S(=O)(=O)n2ccc(C)n2)ccc1Cl | inactive: 8.41%
C=CCOc1ccc2c3c(c(=O)oc2c1)CCCC3 | inactive: -4.71%
O=C(O)C1CSC2(c3ccc(F)cc3)CCC(=O)N12 (stereo not given) | inactive: 2.44%
Cc1ccc(NC(=O)COC(=O)CCc2c(C)nc3ncnn3c2C)cc1C | inactive: 12.1%
CN(CC(=O)Nc1ccc(N2CCOCC2)cc1)CC(=O)Nc1ccc([N+](=O)[O-])cc1Br | inactive: 3.96%
